Some of the results follow.
T1: UNK ZnF1-3 (human, UniProt Q9C0B0 31-174)
T1 sequence: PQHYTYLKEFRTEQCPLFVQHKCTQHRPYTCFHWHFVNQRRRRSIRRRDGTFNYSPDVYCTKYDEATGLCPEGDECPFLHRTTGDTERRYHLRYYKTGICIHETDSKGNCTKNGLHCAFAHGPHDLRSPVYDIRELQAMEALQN

B1: chr8:117878989:117878990:-_ENSG00000164754_ENST00000297338|hu_hu|hu_hu_hu_mus_True|98_108 (ssRNA)
RNA: GGGAGUUCUACAGUCCGACGAUCCCAGAGGCCCUCUUUUACUGAGAACAAAAUGUGCGUAGAACAUUUUUCUUAUUUGCUAUGAAAUAAGAAGAAACCUGGAUCUCGGCGGGGAGCCGGGAGGGGUGGGUGGCCCGGGGAGGGCAACAGAGGAUUGAGCAUCA
B2: chr5:37680062:37680063:+_ENSMUSG00000029121_ENSMUST00000031004|mus_hu|mus_mus_mus_hu_False|78_88 (ssRNA)
RNA: GGGAGUUCUACAGUCCGACGAUCUUUGGGUGUAGCUGGUACCUCGUACACAGGCCCAUCGUACAUGCCCCUGGAAACCCCUUGCAAUCCAAAAACCUUAUUCCUGAUUUUGACGCGCUGGUACAGGUGCUCCGGGAACGCCUUCAACAGAGGAUUGAGCAUCA
B3: chr2:178096590:178096591:-_ENSG00000116044_ENST00000397062|hu_hu|motif|central (ssRNA)
RNA: GGGAGUUCUACAGUCCGACGAUCGAGGAUGCUGCUGAAGGAAUCCUCAAAAGCAUUAAGAAAAUGUGGACUACAGUUACCGGCUUCUUUUUCCAUUGAGGGUAUAGAUGAGUAAAAAUGAUAAUUGUCAACUUCUGUCAGUUUCAACAGAGGAUUGAGCAUCA
B4: chr1:78428520:78428521:-_ENSG00000162613_ENST00000370768|hu_mus|FALSE|FALSE (ssRNA)
RNA: GGGAGUUCUACAGUCCGACGAUCCCCUAAAGGAUUUACUGGGCCCCCAAUCUUCUCUUCUAUGAGUUGUCGAGCAUAGUCUAUUUGCUGUGGAGUGCCCCGAAUUGUAAAUAACUUCAUAUUGGGAUCUGCAUUAGGUGGAGGCAACAGAGGAUUGAGCAUCA
B5: chr17:58740566:58740567:+_ENSG00000170836_ENST00000305921|hu_hu|FALSE|FALSE (ssRNA)
RNA: GGGAGUUCUACAGUCCGACGAUCUUUUUGGUCCAUGACAGUGUUUGUUGAAUUAGUAGGCACAAGGCCAAUUGGAAGGCUAUUAUUCAAAGAAUCAUGUAUCCUUAAAGUCAGGGCUUUAGCGCAAUUUUCUUCAAGUGGUUCCAACAGAGGAUUGAGCAUCA
B6: 123193944_123195740_1386_CDS_ENSMUSG00000029471_ENSMUST00000111668|mouse|control|control (ssRNA)
RNA: GGGAGUUCUACAGUCCGACGAUCCAAGUCUUCGGCUAUAUCGGGCUGGUCGGGAAACUCCAGGGCCUGACUCUUGAUCUUACUGUGCAAACACAUGAUUCGUUCAUCCAUGAAAGGGCACUGGCCAAAGACAAAGCAGUACAGCAACAGAGGAUUGAGCAUCA
B7: chr1:46159212:46159213:+_ENSG00000159596_ENST00000372025|hu_mus|hu_hu_hu_mus_True|1_18 (ssRNA)
RNA: GGGAGUUCUACAGUCCGACGAUCUCUGAUCCCUCCCAAGAAAGCUAGGAAACCGGCUCCAUAAGCCAUCUGAGUGAAAGCUAGGACGGGGAUAUAAGACUUUGUUAUUACCAUGAGCAGUGGUGGAGCAGUAAAGGGGAUUAGCAACAGAGGAUUGAGCAUCA
B8: chr1:38108737:38108738:+_ENSMUSG00000026083_ENSMUST00000027252|mus_hu|FALSE|FALSE (ssRNA)
RNA: GGGAGUUCUACAGUCCGACGAUCAAGGGCAAACUUUAAAACAGCAGCCAAGUAGAGAAGGGUUGGGGAAGGGAGAGGUGAGUGAACAGGCACAUUGGAACUGUGGGGACAUGUAACUGACCACUGUCAAACCAGUGUAAGUUUCAACAGAGGAUUGAGCAUCA
B9: 133308728_133308848_738_3pUTR_ENSMUSG00000007880_ENSMUST00000145664|mouse|control|control (ssRNA)
RNA: GGGAGUUCUACAGUCCGACGAUCGGACGAAGACGACGAGGAGGCAGAGGCGCUGGAGGAGGGAGGCGGCUUGGAGCCGGCGGCCGCCGCCGCGCCGGAGCCCGGAGUGCCACCUCUCGGGGAGCUCAGCGCGUAGGCCUGGGGCAACAGAGGAUUGAGCAUCA
B10: chr3:47719781:47719782:-_ENSG00000173473_ENST00000254480|hu_hu|motif|central (ssRNA)
RNA: GGGAGUUCUACAGUCCGACGAUCAUGGACCCUCAUCACAGCACACACAUCUCCAGUCAAGUUCCUCCGACAAGCAGUGCGGGUUAAAUACUCUUGGGGGUUUAGACGAUACGUGUCAAUCAUAAAAUUUCGAUAUGCCAAGUACAACAGAGGAUUGAGCAUCA
B11: chr7:135612270:135612271:-_ENSG00000105887_ENST00000393085|hu_mus|hu_hu_hu_mus_False|38_78 (ssRNA)
RNA: GGGAGUUCUACAGUCCGACGAUCGUUUUUUUCUGAGAUGUUAAAUAGUACUUCAGUAACAAAACUUACUUAACCUUUUAUUAAUGCGUGUUGUACCAGAAAGCAAAAUUUUAGCUUCAUUUAUUCAAAAAUAUUAACAUUAAGCAACAGAGGAUUGAGCAUCA
B12: chr3:167401952:167401953:-_ENSG00000114209_ENST00000497056|hu_hu|FALSE|FALSE (ssRNA)
RNA: GGGAGUUCUACAGUCCGACGAUCAAAAGAAUGAUAAUAGCAAAAGUGAUGCAAAAUCUUCAGUGUGAGAUUAUGAUUAAGCUACAUUUUACAAAAAUAUGGUGUAAGAUGGCAAUAAUCCCAUUCAACAUCCUGGAUUAGAUCCAACAGAGGAUUGAGCAUCA
B13: 106934640_106934760_4635_CDS_ENSMUSG00000040481_ENSMUST00000057892|mouse|control|control (ssRNA)
RNA: GGGAGUUCUACAGUCCGACGAUCCUCUCCAGUUCUAACAGGAGACGGGAUAACUCUCUUAACCUCUGGACUUUCAGUUUCCAUAUCUUCUACCUGACUAAGUGAGUUCCGAUCUGGACAAGGGGCUCGGGGUGUGAUUACCUGCAACAGAGGAUUGAGCAUCA
B14: chr12:111951244:111951245:-_ENSG00000204842_ENST00000535949|hu_hu|FALSE|FALSE (ssRNA)
RNA: GGGAGUUCUACAGUCCGACGAUCUCUUGGAACCCCACUGACCACUGAUGACCACGUUCCCCCCGAGGGACUGGUCCUUGCUACUGGAGGAGUAGCUGCUUCACUGGGUGGGUUGUGGGAUACAAAUUCUAGGCCACUGGAUAUCAACAGAGGAUUGAGCAUCA

Each binder was assayed against T1, UNK ZnF1-3 (assay: nsRBNS (natural sequence RNA bind-n-seq); RBNS binding buffer (assumed for nsRBNS): 25 mM Tris pH 7.5, 150 mM KCl, 3 mM MgCl2, 0.01% Triton X-100, 500 ug/ml BSA, 20 U/ml SUPERase-In, 4 C; UNK is unkempt and MSI1 is Musashi-1; names of the RNAs are library labels; protein concentration not given here; high values mean tight binding).
B1 showed a binding signal of 1.96 enrichment R.
With B2 the binding signal was 0.78 enrichment R.
B3 gave a binding signal of 1.47 enrichment R.
With B4 the binding signal was 1.65 enrichment R.
For B5, the binding signal was 1.09 enrichment R.
B6 showed a binding signal of 0.895 enrichment R.
In the case of B7, the binding signal is reported as 2.41 enrichment R.
B8 showed a binding signal of 1.77 enrichment R.
In the case of B9, the binding signal is reported as 0.963 enrichment R.
With B10 the binding signal was 1.9 enrichment R.
B11 gave a binding signal of 1.04 enrichment R.
B12 was tested, and the binding signal was 1.02 enrichment R.
With B13 the binding signal was 0.74 enrichment R.
In the case of B14, the binding signal is reported as 0.642 enrichment R.
